# Data published in the RNAGym collection of RNA variant scans (doi:10.1073/pnas.2313332121).
# Variants at the background level are over-represented here.
# B1: TPR 5TU (parent)
# chain: GGAUCUUCUCGAUCUAACAAAAAAGACAAAUCUGCCACAAAGCUUGAGAGCAUCUUCGGAUGCAGAGGCGGCAGCCUUCGGUGGCGCGAUAGCGCCAACGUUCUCAACUAUGACACGCAAAACGCGUGCUCCGUUGAAUGGAGUUUAUCAUG
# Variants of: B1
# Assay: polymerase ribozyme fitness, log enrichment relative to wild type (log ratio); higher = more active; in vitro selection for triplet polymerase activity
# Procedure, shortened: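 Each subunit of a heterodimeric triplet polymerase ribozyme was represented by a PCR-built, transcribed mutant library that underwent triplicate single-round in vitro selection with frozen incubation at −7 °C. Extended constructs were recovered by gel excision, streptavidin-bead capture and RT-PCR, and Illumina sequencing of input and output libraries kept genotypes with ≥10 input reads and ≥1 read per output. Fitness is the logarithm of genotype enrichment relative to wild-type enrichment, from inverse-variance-weighted replicate averages, with a logarithm base of 2.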
row,Variant,polymerase ribozyme fitness (log ratio)
1,C10U A20G C85A U102G U127G,≤ -4.2
2,C10G G81C C87A U127C U144A U148A,≤ -4.2
3,G11A U15G G42U G48U U139C,≤ -4.2
4,C10U A12C A40G G48C U55A U145G U148C C149G,≤ -4.2
5,C10G G11A G50A C79U C87G U101G,≤ -4.2
6,C10U G136A,-2.74
7,C10U U15A A23U C32A C51U U55G U111G,≤ -4.2
8,G11C A24U U44G U53A C75G G94A U139A,≤ -4.2
9,G11C C114U G141U U148A,≤ -4.2
10,C10G C63U C85A C132U,≤ -4.2
11,C10G G11U C32A C51U C75U C93U C95A,-4.16
12,C10U C54A G88U A115G,≤ -4.2
13,G11C A28G U56A U77A C87A A122U,≤ -4.2
14,C10U A12U A39U C51G C96G,≤ -4.2
15,C10U G86C,≤ -4.2
16,C10U C54A G65C C93G,≤ -4.2
17,C10G G62A U144C,≤ -4.2
18,C10U U78A C87G C116G G117A,≤ -4.2
19,G11C A60G G84A A89G C116U A147U U148A,≤ -4.2
20,C10G C85G A121U U151G,≤ -4.2
21,C10U U15A A23U C36U U111G,≤ -4.2
22,C10U A40G G84U U130G C131G U144A,≤ -4.2
23,G11A A12U C38U A60U C76A C95G C99U C123G A142C,≤ -4.2
24,C10U A41U G70C G83U C108U U134A A142G,≤ -4.2

row,Variant,polymerase ribozyme fitness (log ratio)
1,G11U A17C G34A C85A,≤ -4.2
2,G11A A26C G68U C75U A147C,≤ -4.2
3,G11C U31C G59C C76A G84U U104A A107U,≤ -4.2
4,G11A C14G A37C C54G G83C G141A,≤ -4.2
5,C10G C69G U78C C85U A97U C103U,≤ -4.2
6,G11A A64G G88U U101G C103G U146G,≤ -4.2
7,G11C A21C U45A,≤ -4.2
8,G11C A41C A66C C85U A122U G140U,≤ -4.2
9,G11A C14U C54U A89G C95A G141U,≤ -4.2
10,C10U A26U A41U G42A G86A C105A U135A U145G U146C,≤ -4.2
11,C10U A12C C18G A20C A23C C76A C93G U139A,≤ -4.2
12,G11C G74A U102G C132U,≤ -4.2
13,C10U A39U C79G G86C G92U A110G C132U G133U U139A,≤ -4.2
14,G11C C14U A37C C93U,≤ -4.2
15,G11C A49G U55A A64G C93U G140U,≤ -4.2
16,C10U C87A,≤ -4.2
17,C10G G92C U111A C114A,≤ -4.2
18,G11A U33G C38U U44A U55G G86C G117U G143A,≤ -4.2
19,C10U A107G,≤ -4.2
20,C10U A39G A73U G83U A147G A150U,≤ -4.2
21,G11A A60G G65C,≤ -4.2
22,C10G G88A U102G C116U,≤ -4.2
23,G11A A24G A41U C51A G59A G80A G84U U90A,≤ -4.2
24,G11U A19C G70U U102A,≤ -4.2

row,Variant,polymerase ribozyme fitness (log ratio)
1,G11C A40C G42A G58U A60U C85G A89U C93G,≤ -4.2
2,C10U C18U A22U A30C C51G U53G A66C C75A C87U C99A A150G,≤ -4.2
3,G11A A17C A39C,-3.25
4,C10U U33G C38G U44G A52G C87U C108U C118U,≤ -4.2
5,C10G U61A G74U G81U C85G,≤ -4.2
6,G11C C14U U53A C93G A97G U111G U148G,≤ -4.2
7,G11C A19G C51U C75G G81C C96U C118A,≤ -4.2
8,G11A G92U,-1.16
9,C10U U44A U102G A119C A121G A137C G143A,≤ -4.2
10,G11C C35U A52C A60G,≤ -4.2
11,C10U C32G G67A U82A C87G A91G C129A U151A,≤ -4.2
12,C10U U53A,-2.96
13,G11A G50U U82C G86A C116A,-3.47
14,G11C C18G A23C G48A G88U C93G U144A,≤ -4.2
15,C10U A22U A29G U53G C75A G83A A106U A150C,≤ -4.2
16,G11C G46A C54A G86A,≤ -4.2
17,G11A A29U U82G C87A G94C C96U A98G A122C G141A,≤ -4.2
18,C10U G11U C54U U56A G58A A73G C85G U104A U111G A120U G143C,≤ -4.2
19,G11A C32U G50A C57A C125G,≤ -4.2
20,C10U C18G G50A A66G G88U A122U U139C,≤ -4.2
21,G11A C85G C93U G126A A150C,≤ -4.2
22,G11A A24U A49C C51U U101G,≤ -4.2
23,G11A A60G U77G G84U A91U,≤ -4.2
24,C10G G92U,-3.24

row,Variant,polymerase ribozyme fitness (log ratio)
1,C10G G92C,-3.61
2,C10U A26G A73U G94A,≤ -4.2
3,C10G U45A A47C G84C U101G U151A,≤ -4.2
4,C10G C54U G84U A89G,≤ -4.2
5,G11U A19U G92A G100A A110G G133A,≤ -4.2
6,G11U A23C U31C G84A G92C,≤ -4.2
7,G11A G34C A47G C103G A121U,≤ -4.2
8,G11A C87A G92U A107U C114U U148A,≤ -4.2
9,G11A A20U C32U G84A,≤ -4.2
10,C10G G71U C93U G117A,≤ -4.2
11,C10U C27U C35G C87G C96U U148G,≤ -4.2
12,G11A A12G C38U A41U C69U G83U,-3.51
13,G11A C75A G86U,≤ -4.2
14,G11A G59A,-1.71
15,C10U A19U A41C G42U U55A C96A U151C,≤ -4.2
16,G11C G59A G80C,≤ -4.2
17,G11A U13A C27G A49C C76U A89G A91G A97U C129U,≤ -4.2
18,G11A G67A C79G C87A C114G A137G,≤ -4.2
19,G11C C14G A24U A29C A30G G68U C85G G124U,≤ -4.2
20,G11A C38U G59C A64U G81A C93U G94C,≤ -4.2
21,G11A A39C U56A C132A A150G,≤ -4.2
22,C10U A17G A52C C75U C99U U102C U127A U135A,≤ -4.2
23,G11A A22U C43G A73U C93G U102G C105U A150C,≤ -4.2
24,C10U C103G C132U,≤ -4.2

row,Variant,polymerase ribozyme fitness (log ratio)
1,C10G C76U,-3.93
2,C10U C32G C35U A73G C95G C103G U144C,≤ -4.2
3,C10U C35G U45A C76G,≤ -4.2
4,C10U C85G,-3.57
5,C10U A40G C105G,≤ -4.2
6,G11C G42U U55G C76U,≤ -4.2
7,C10U C14G C76U A106G A107G C108U,≤ -4.2
8,C10U A91U C96U A119G G143A,≤ -4.2
9,C10U U45A G81U,≤ -4.2
10,C10U G70U C87A C118U,≤ -4.2
11,G11U A17C A37U A121U A122U,-3.25
12,C10U U31C C54U G80A G92A C125U G141A,≤ -4.2
13,G11U A20C G48A G62U G83U G126U,≤ -4.2
14,C10U U15A A40C U53A C87A U135C U148A,≤ -4.2
15,G11A C14G A66U C87A A106U G143C,≤ -4.2
16,C10U G42C G83U A97G G124U G133C,≤ -4.2
17,G11C G34A G58U G94A U144G,≤ -4.2
18,C10U A28G A49G C85G C95U C103G G133U A147U,≤ -4.2
19,C10U U77G C87A G117U,≤ -4.2
20,C10U C32U A52U G74A G86A A89G A107C G140U U148C,≤ -4.2
21,G11U A24U G48A U61A C93G C95A G143C,≤ -4.2
22,G11A A20G A26C C32G U33G G81A A89U U102G A106U,≤ -4.2
23,G11C G50U G84U A97G,-3.09
24,C10U A29U G92A C99A U145C,≤ -4.2

row,Variant,polymerase ribozyme fitness (log ratio)
1,C10G U15G A37C C87G A137U,≤ -4.2
2,C10G G34U C85A,≤ -4.2
3,G11C U15G G59U C76A C85G,≤ -4.2
4,G11C A21U A40U G58C C75G A91G C118U,≤ -4.2
5,C10U C14G A24C A52C U53A C76A C99G,≤ -4.2
6,G11U A19G C57A G58U G80A C114U G140C,≤ -4.2
7,C10U A37C C75U C95G,≤ -4.2
8,G11U A30C A66U U104G,≤ -4.2
9,C10U C35U,-3.04
10,C10U G84A,-3.34
11,G11U A22U C38U A60C C85A G140C U148G,≤ -4.2
12,C10U G46A C96G,≤ -4.2
13,C10G U56G C57A G74C A91U C96A A106G,≤ -4.2
14,C10U U15C A40C U61A G71A G86A C132G G141U A147U,≤ -4.2
15,C10G U13A A23U C32A A41G G71C C87U C105U A115U,≤ -4.2
16,C10U G11C C27U G34A A41G C118U A137U,≤ -4.2
17,G11C A47C U53A G65A C75G G84C G141A,≤ -4.2
18,C10G C54U G58U U82A G94C G143U,≤ -4.2
19,G11C A26G C27G A37U G83A C103A U148C,≤ -4.2
20,G11C A47U C85U,-2.5
21,G11A U31A A47G G62U C63G C87A U111G,≤ -4.2
22,C10U C51U A73U C87G C99A C125G U130A U139C A142G,≤ -4.2
23,C10U A26G C51A C54U U56A A97G,≤ -4.2
24,G11A A17C A26C C43U G92U U144G,≤ -4.2

row,Variant,polymerase ribozyme fitness (log ratio)
1,G11A A30G C118G,≤ -4.2
2,G11C A60G C96G U111A,≤ -4.2
3,G11A U61A U77A,≤ -4.2
4,C10U A28U A39C A49C U104G C118U,≤ -4.2
5,G11U A24G G50U C57U U102G,≤ -4.2
6,G11C U56A U102G C116A,≤ -4.2
7,C10U G50C A64C G65C C93A A142U,≤ -4.2
8,G11C C87U A107G C116G,≤ -4.2
9,G11A G94U A113C C114U A122C G143U C149U,≤ -4.2
10,C10G G59A C79A C123A U135G,≤ -4.2
11,C10U C38G C85G A89G G128U C129U U135G U148G,≤ -4.2
12,G11A C14G A19U C27A U31C C118G,≤ -4.2
13,G11A C35A G86A,≤ -4.2
14,G11C G92U C116A A121G G126A C149G,≤ -4.2
15,C10U G59A C85U,≤ -4.2
16,C10U A19G A28U U55A U56A A66U G74A G84U,≤ -4.2
17,C10U U13G C27A U33A C75G G88A A122U,≤ -4.2
18,C10U A20C A40C U55G C57U G92C,≤ -4.2
19,G11A A39G C54G C87U C96G,≤ -4.2
20,C10U C32U A41U,≤ -4.2
21,C10G C85U A91C C105A,≤ -4.2
22,C10G G46A U55A G65A A73G U134A,≤ -4.2
23,C10U C14G A28U G58C U61C G70C C76G C96U A138G G140U C149G,≤ -4.2
